ChEMBL document CHEMBL4888484, “Replenishing the malaria drug discovery pipeline: Screening and hit evaluation of the MMV Hit Generation Library 1 (HGL1) against asexual blood stage Plasmodium falciparum ,using a nano luciferase reporter read-out” (2022)
The whole screen tested about 150,000 compounds, of which about 540 (0.36%) showed an effect of 50% or more. The list shows a part of the results.

System: Plasmodium falciparum
Experiment: Primary screen in NF54 nanoGlo assay, in single point, at 2uM, 72h; a lower Z score goes with more inhibition
Format: functional, Erythrocyte
Settings: timepoint 72 hour

Compound | % Inhibition [%] | Z score
Cn1cc(C(=O)N2Cc3ccccc3-c3ccccc32)ccc1=O | -2 | 0.34
O=c1cc(CN2CCC[C@@](O)(CO)C2)[nH]c2c(F)cccc12 | -8 | 1.08
COCCNC(=O)NCCC(=O)Nc1cccc(Cl)c1C | 0 | -0.03
CC(C)C1CC(N2CCCC(C(C)N)C2)CCO1 (stereo not given) | -8 | 0.7
O=C(NCCc1ccc(F)cc1)C(=O)Nc1ccc(Cl)cn1 | -12 | 1.82
NC(=O)[C@H]1CC=CC[C@@H]1NS(=O)(=O)c1cccc2nsnc12 | -7 | 0.99
Cc1noc(C)c1CCC(=O)N1CCCN(S(=O)(=O)c2c(C)nn(C)c2C)CC1 | -14 | 2.16
Cc1cc(N2CCN(CCOCC(C)C)CC2)n[nH]1 | -5 | 0.6
CC(C)(CN1[C@H]2CCNC[C@@H]1CC2)N1CCOCC1 | -23 | 2.42
NC(=O)[C@H](Cc1ccc(O)cc1)NC(=O)NC1CCCCCCC1 | -2 | 0.32
CC(C)c1ccccc1NC1CCC2(CC1)CS(=O)(=O)C2 | -5 | 0.97
C=CCOCC(O)CN(Cc1cccc(C)c1)C(C)CC (stereo not given) | -2 | 0.35
O=C(c1ccco1)N(C(=O)c1ccco1)c1ncnc2oc(-c3ccco3)c(-c3ccco3)c12 | 31 | -3.56
COC[C@H]1C[C@@H](O)CN1Cc1ncoc1C1CCC1 | -8 | 1.1
CCc1oc(C(=O)[C@H](C#N)C(=O)Nc2cc(Cl)ccc2C)cc1C | -6 | 1.06
c1cc(-c2nccn2Cc2noc([C@@H]3CCCO3)n2)cc(-n2cccn2)c1 | -11 | 1
CCc1cc([C@@H]2CCCN2C(=O)Cc2ccc(F)cc2Cl)on1 | 13 | -1.76
O=C(c1ccc2c(c1)C(=O)N(c1nc3ccccc3s1)C2=O)c1ccc2c(c1)C(=O)N(c1nc3ccccc3s1)C2=O | 3 | -0.33
Cc1nc2cc(C(=O)N3CC[C@H](C(F)(F)F)C3)ccc2c(=O)[nH]1 | -16 | 1.83
Cc1nc[nH]c1CN1CCc2[nH]cnc2[C@@H]1c1ccsc1 | -6 | 0.95
Cc1cc(NC(=O)c2cccc(S(C)(=O)=O)c2)sn1 | -2 | 0.18
CCc1nc(N2CCC(CCC(=O)NCc3cccc(Cl)c3)CC2)no1 | -10 | 1.96
Cc1cccc(CN(Cc2ccccc2)C(=O)Cn2nccc2[C@H]2CCCNC2)n1 | -13 | 1.9
CCC(=O)N[C@@H](C)COc1ccccc1C | -14 | 1.86
O=C(Nc1nc(-c2ccc3c(c2)OCCO3)cs1)c1cnc2ccccc2n1 | -9 | 1.4
CCC(C)n1nc(NC(=O)N[C@H]2CCCC[C@@H]2O)cc1C (stereo not given in full) | 4 | -0.33
COCCc1nc([C@H]2CCOC2)n(Cc2ccccc2Cl)n1 | -14 | 2.34
NC(=O)c1cc2c(nc1-c1cccc3c1OCC3)CCC2 | -16 | 1.75

Compound | % Inhibition [%] | Z score
COc1cccc(N2N=NC3C(=O)N(c4ccc5c(c4)CCC5)C(=O)C32)c1 (stereo not given) | -1 | 0.15
COc1ccc(NC(=O)[C@H](NC(=O)Cc2c[nH]c3ccccc23)c2ccc(C)cc2)cc1 | -9 | 1.46
Cc1ccc(S(=O)(=O)NC[C@@H](CO)Cc2cnn(C)c2)cc1 | 3 | -0.28
CCc1ncsc1C(=O)OCC1(C#N)CCOCC1 | 34 | -4.54
COCCn1cnc2cc(NC(=O)C3CCCCC3)cc(C(=O)NC[C@H]3CCCN(C(C)C)C3)c21 | -6 | 0.85
Cc1c2ccc3ccccc3c2s[n+]1CCCS(=O)(=O)[O-] | -20 | 3.12
O=C(Nc1ccccc1)Nc1cnc(-n2ccnc2)nc1 | 39 | -2.77
O=C(NC[C@H]1CC12CCCCC2)c1cccc(=O)[nH]1 | -8 | 1.32
CCc1nnc(CN(C)Cc2cnc(C)cn2)o1 | -16 | 1.71
COc1ccc(CN2CC[C@H]2C(=O)NCc2cc(C)on2)cc1 | -16 | 1.71
CN(C)CCNC(=O)c1coc(CN2CCC(Cc3ccccc3)CC2)n1 | -2 | 0.16
Cc1ccc(F)cc1NC(=O)Cc1nnc(-c2ccsc2)o1 | -15 | 1.51
CCOC(=O)[C@H]1CCCN(C(=O)CN2CCN(c3cccc(Cl)c3)C2=O)C1 | -3 | 0.36
CC(C)Cn1ccnc1CNc1nccnc1C#N | 5 | -0.83
CC(=O)c1sc(CC(=O)NCc2ccco2)nc1C | -10 | 1.12
Cc1oc(-c2cccc(Cl)c2)nc1CNC(=O)NC1CCCCC1 | 5 | -0.61
Cc1ccc2sc(CN3CCN(S(=O)(=O)c4cccnc4)CC3)nc2c1 | -5 | 0.55
COc1ccccc1NC(=O)c1cc2c(ccc3ccccc32)o1 | -1 | 0.11
Cc1cc(C)c2c(C)c(C(=O)N3CCOC34CCN(C)CC4)oc2c1 | 4 | -0.53
Cn1ccc2cc([C@@H](O)CNC(=O)N3CCN(S(C)(=O)=O)C3=O)ccc21 | -7 | 0.93
O=C(N[C@@H]1COC2(CCCC2)C1)c1ccc(C(F)(F)F)cc1 | -11 | 2.11
CCCN(CCC)S(=O)(=O)N[C@H]1CCC[C@H]1Cn1ccnn1 | -2 | 0.41
O=C1CC(C(=O)N2CCO[C@H]3CCC[C@H]32)CN1 (stereo not given in full) | -13 | 1.81
CC(C)(C#CCN1CCCCC1)OCCOC(c1ccccc1)c1ccccc1 | -15 | 1.35
FC(F)(F)C1CCN(Cc2cccs2)CC1 | -6 | 1.09
CC(C)c1nc(CNc2nnc([C@@H]3Cc4ccccc4O3)o2)cs1 | -11 | 1.19
O=C(Nc1cc[nH]n1)Nc1ccncc1F | -7 | 1.08
